In PubChem BioAssay AID1347417 (National Center for Advancing Translational Sciences (NCATS), 2020):
The whole screen tested about 120,000 compounds, of which about 5,300 (4.4%) were called active. The inconclusive results got no clear call from the source; some entries with a clear call stand among them for comparison. Calls follow the shape of the dose curve; as a rule, active = well fitted inhibition curve with a large enough effect; inconclusive = small, poorly fitted or top-dose-only effect; inactive = no such curve, though single readings can be large or run the other way. Potencies of inconclusive entries are doubtful fits and often do not repeat.

test: qHTS Primary assay for Inhibitors of Plasmodium falciparum Dd2 growth in vitro; also: nearly all actives have a fitted effect of over 65% in size;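 as to activity, negative = inhibition: plate controls were DMSO vehicle for no effect and reference drug for full effect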; conditions: P. falciparum Dd2 growth, SYBR Green, 72 h; activity, negative = inhibition: at 28.9 µM (top of the series) unless noted; series mostly up to 28.9 µM
Outline: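 Infected erythrocytes (Dd2, 0.3% parasitemia, 2.5% hematocrit final) are added to compound in RPMI-1640/Albumax II medium, grown 72 h at 37C in low oxygen, then lysed with saponin/Triton-X containing SYBR Green and read by fluorescence.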
Potency is read from the fitted curve at half-maximal effect; tags tell the direction and shape of the fitted curve.

| Structure (SMILES) | Potency | activity, negative = inhibition | outcome |
| --- | --- | --- | --- |
| COc1ccc(-c2cn3cc(C(=O)N4CC[C@H](O)C4)nc3c(=O)n2CC2CC2)cc1 | inconclusive: 7.94 µM [inhibitor, partial curve, poor fit] |  |  |
| Cc1ccc(C2=Nc3ccccc3N(CC(=O)Nc3ccccc3F)C(=O)C2)cc1C | inconclusive: 10 µM [inhibitor, single point] |  |  |
| COc1ccccc1Nc1sc(C(=O)c2ccc3c(c2)OCO3)c(N)c1S(=O)(=O)c1ccccc1 | inconclusive: 10 µM [inhibitor, single point] |  |  |
| COc1ccc(-c2noc(-c3cccn3CC(=O)Nc3cc(C)ccc3OC)n2)cc1F | inconclusive: 4.47 µM [inhibitor, partial curve, poor fit] |  |  |
| CCOC(=O)c1c(C)n(S(=O)(=O)c2ccc(C)cc2C)c2ccc(NS(=O)(=O)c3ccc(C)cc3C)cc12 | inconclusive: 11.2 µM [inhibitor, single point] |  |  |
| Cn1ccnc1C(=O)N1CCC(N2C(=O)C3(CCCCC3)C2c2ccncc2)CC1 (stereo unspecified) | inconclusive: 10 µM [inhibitor, partial curve, poor fit] |  |  |
| O=C1NCc2ccccc2CC12CCCCN2Cc1cccc(O)c1 (stereo unspecified) |  | inactive: -20.2% |  |
| C[S+](=O)([O-])CCn1ncc2cc(OCc3cccc(-c4cccc(O)c4)c3)ccc21 | inconclusive: 11.2 µM [inhibitor, single point] |  |  |
| COc1cccc(Cn2c(=O)c3ccnn3c3ccc(C(=O)NCCCN(C)C)cc32)c1 | inconclusive: 2 µM [inhibitor, partial curve, poor fit] |  |  |
| CCCNC(=O)NCCn1c(C)cnc1-c1ccncc1 |  | inactive: 4.97% |  |
| Cn1ncc2c(C(=O)NC3CC3)cc(-c3ccc(F)cc3)nc21 |  | inactive: 33.8% |  |
| N#Cc1cc2c(nc1N1CCN(C3CCCC3)C(CCO)C1)CCCC2 (stereo unspecified) | inconclusive: 10 µM [inhibitor, partial curve, poor fit] |  |  |
| Cc1nc(-c2ccccc2)n(CC(=O)Nc2ccc(C(C)C)cc2)c(=O)c1CCO | inconclusive: 1.26 µM [inhibitor, partial curve, poor fit] |  |  |
| CCC(=O)N1CCc2cc(Br)cc(S(=O)(=O)N3CCC(C(=O)Nc4ccccc4CC)CC3)c21 | inconclusive: 17.8 µM [inhibitor, single point] |  |  |
| Cn1nc(C(=O)N2CCCN(c3cc(-c4ccc(Cl)cc4)[nH]n3)CC2)c2ccccc21 | inconclusive: 3.98 µM [inhibitor, single point] |  |  |
| COCCNC(=O)[C@@H]1C[C@H](Oc2cccnc2)CN1C(=O)CCc1c[nH]c2ccccc12 | inconclusive: 17.8 µM [inhibitor, single point] |  |  |
| Cc1cc(C)n(-c2cccc(CN(C)C(=O)C3CCC(=O)N(C4CCCC4)C3)c2)n1 (stereo unspecified) |  | inactive: -8.55% |  |
| COc1cc(CN(C)C2CCOc3ccccc32)ccc1F (stereo unspecified) | inconclusive: 31.6 µM [inhibitor, single point] |  |  |
| CCCN1CCC2(Cc3ccccc3CN(C(=O)Cc3ccc(O)cc3)C2)C1 (stereo unspecified) | inconclusive: 10 µM [inhibitor, partial curve] |  |  |
| Cn1nccc1C(=O)N1CCC(Oc2ccccc2)C1 (stereo unspecified) | inconclusive: 7.94 µM [inhibitor, single point] |  |  |
| CNC(=O)[C@@H]1CN(C(=O)c2cc(C)n(Cc3ccco3)c2C)C[C@H]1CO |  | inactive: -7.15% |  |

| Structure (SMILES) | Potency | activity, negative = inhibition | outcome |
| --- | --- | --- | --- |
| CCCCN1C(=O)c2[nH]nc(-c3ccccc3O)c2C1c1ccc(C(C)(C)C)cc1 (stereo unspecified) | active: 2.82 µM |  |  |
| COCC(=O)N1CCCc2nc(C)nc(-c3ccc(O)cc3)c2C1 | inconclusive: 3.16 µM [inhibitor, single point] |  |  |
| Cc1cccc(C(=O)NC2CCN(c3cc(-c4cccs4)[nH]n3)CC2)c1 |  |  | inactive |
| CN(CCCn1ccnc1-c1cnc[nH]1)c1ccccc1 | inconclusive: 10 µM [inhibitor, partial curve] |  |  |
| COCCN1CCC(N2CCN(S(=O)(=O)c3ccc(C)c(F)c3)CC2)C1=O (stereo unspecified) |  | inactive: -22.6% |  |
| Cc1c(-c2nnc(SCC(=O)Nc3ccccc3F)o2)nnn1-c1ccc(F)cc1 | inconclusive: 17.8 µM [inhibitor, single point] |  |  |
| CCOc1ccccc1NC(=O)N1CCCCCCN(C)C(=O)[C@H]2CCC[C@H]21 | active: 11.2 µM |  |  |
| Cc1ccccc1CC(=O)N1CCC2(CC1)N(c1ccccc1)C(=O)CS2(=O)=O | inconclusive: 5.62 µM [inhibitor, partial curve, poor fit] |  |  |
| O=C(NCc1ccccc1)N1CCC(Oc2ncccc2C(=O)N2CCOCC2)C1 (stereo unspecified) |  | inactive: 7.67% |  |
| Cn1cc(-c2ccc3c(n2)CN(Cc2ccc(C(F)(F)F)cc2)C(=O)CO3)cn1 | inconclusive: 14.1 µM [inhibitor, single point] |  |  |
| COc1ccc(-n2nc3c(N4CCCC(C(=O)NCc5ccc(C)cc5)C4)nnc(C)c3c2C)cc1 (stereo unspecified) | inconclusive: 17.8 µM [inhibitor, single point] |  |  |
| Cn1ccc(C(=O)N2CC3ON=C(C(=O)NCc4cccnc4)C3C2)n1 (stereo unspecified) |  | inactive: 5.05% |  |
| CCCNC(=O)c1cnn2c(C)c(Cc3c(C)cc(C)cc3C)c(C)nc12 | inconclusive: 17.8 µM [inhibitor, single point] |  |  |
| CC(C)CC(=O)Nc1nc2c(s1)CC(C(C)(C)C)CC2 (stereo unspecified) | inconclusive: 3.55 µM [inhibitor, full curve, poor fit] |  |  |
| Cc1ccc(CNC(=O)c2c(C)sc3ccn(C)c(=O)c23)cc1 | inconclusive: 7.94 µM [inhibitor, partial curve, poor fit] |  |  |
| O=C(Nc1cccnc1)N1CC2ON=C(C(=O)N3CCOCC3)C2C1 (stereo unspecified) |  | inactive: 2.92% |  |
| CCOC(=O)c1c(C)sc(-c2c(-c3ccc4c(c3)OCCO4)[nH]c3c2c(=O)n(C)c(=O)n3C)c1O | active: 8.91 µM |  |  |
| CCOC(=O)N1CCc2c(sc3c2c(=O)n(Cc2ccccc2)c(=O)n3Cc2cc(C)ccc2C)C1 | inconclusive: 2.82 µM [inhibitor, single point] |  |  |
| CC(C)Cn1cc(NC(=O)Nc2cccc(C(F)(F)F)c2)c2ccccc2c1=O | inconclusive: 17.8 µM [inhibitor, single point] |  |  |
| CCn1c(C(=O)N2CCC(C(=O)N3CCN(c4cc(C)ccc4C)CC3)CC2)cc2sccc21 | inconclusive: 17.8 µM [inhibitor, partial curve, poor fit] |  |  |
| COc1ccc(S(=O)(=O)N[C@H](C)c2onc(-c3cccnc3)c2C(=O)O)cc1 |  | inactive: 19.2% [at 44.1 µM] |  |

| Structure (SMILES) | Potency | activity, negative = inhibition | outcome |
| --- | --- | --- | --- |
| O=C(Nc1nnc(S(=O)(=O)N2CCCc3ccccc32)s1)c1cccc(F)c1 | inconclusive: 17.8 µM [inhibitor, partial curve, poor fit] |  |  |
| COc1ccc(N(C(=O)c2cccc(C)c2)S(=O)(=O)c2ccc(C)cc2)cc1 | inconclusive: 0.0794 µM [inhibitor, full curve, poor fit] |  |  |
| Cc1ccc2c(c1)N(C(=O)C1CCN(S(=O)(=O)c3c(C)noc3/C=C/c3ccccc3F)CC1)CCO2 | inconclusive: 17.8 µM [inhibitor, single point] |  |  |
| CCn1c(SCc2ccc(F)cc2Cl)nnc1-c1nonc1NC(C)=O |  | inconclusive: -38.7% [inhibitor] [at 0.594 µM] |  |
| CC(C)(C)c1ccc(S(=O)(=O)c2cn(CC(=O)Nc3ccccc3)c3ccccc3c2=O)cc1 | inconclusive: 6.31 µM [inhibitor, partial curve, poor fit] |  |  |
| O=C(C1CC=CC1)N1CCC(N2C(=O)C(OCC3CC3)C23CCCCC3)CC1 (stereo unspecified) | inconclusive: 8.91 µM [inhibitor, single point] |  |  |
| O=C(Nc1cccc(Cl)c1)N1CCC(CN2CCOCC2)CC1 |  | inactive: -4.5% |  |
| C[C@H]1[C@@H]2[C@@H](O)C([C@H](C)C(=O)NCc3cccnc3)CC[C@@]2(C)CC[C@@H]1NC(=O)c1cccc(F)c1 (stereo partly specified) | inconclusive: 3.98 µM [inhibitor, single point] |  |  |
| O=C(c1nnc(COc2ccc(F)c(F)c2)n1-c1ccccc1)N1CCC[C@@H]1C(c1ccccc1)c1ccccc1 | inconclusive: 3.16 µM [inhibitor, partial curve, poor fit] |  |  |
| CN1C[C@@H](NS(=O)(=O)Cc2ccccc2)C[C@H]1c1nc(-c2ccc3c(c2)OCO3)no1 | inconclusive: 17.8 µM [inhibitor, single point] |  |  |
| COc1ccc(-c2cc(N3CCCC(NC(=O)c4ccc(OC)cc4OC)C3)n[nH]2)cc1 (stereo unspecified) | inconclusive: 2.51 µM [inhibitor, single point] |  |  |
| O=C1NCCCCCCN(C(=O)COc2ccccc2)[C@H]2C[C@H](c3nc(-c4cnccn4)no3)C[C@@H]12 | inconclusive: 17.8 µM [inhibitor, single point] |  |  |
| COc1ccc(N(Cc2cccs2)C(=O)c2ccc(C(C)(C)C)cc2)cc1 | inconclusive: 15.8 µM [inhibitor, single point] |  |  |
| CC(C)Cc1cc(CNc2nc(C(C)(C)C)nc3c2cnn3C)no1 | inconclusive: 20 µM [inhibitor, single point] |  |  |
| COc1cc2[nH]c(=O)n(Cc3ccc(C(=O)N4CCN(c5cc(Cl)ccc5C)CC4)cc3)c(=O)c2cc1OC | inconclusive: 12.6 µM [inhibitor, single point] |  |  |
| O=C1C(N2CCN(S(=O)(=O)Cc3ccccc3F)CC2)CCN1CCc1ccccc1 (stereo unspecified) |  |  | inactive |
| Clc1ccc(N2CCN(c3ncnc4c3cnn4-c3ccccc3)CC2)cc1Cl |  | inactive: 53.1% |  |
| OCC1(Cc2ccccc2F)CCCN(c2nnnn2-c2ccccc2)C1 (stereo unspecified) | inconclusive: 10 µM [inhibitor, single point] |  |  |
| COCC1CN(C(C)=O)CC12CCN(Cc1cccc(Br)c1)CC2 (stereo unspecified) | inconclusive: 8.91 µM [inhibitor, single point] |  |  |
